Data taken from PubChem BioAssay AID686979 (National Center for Advancing Translational Sciences (NCATS), 2013).
Values joined by “and” are separate entries in the source; they are usually repeats but may differ in a detail not shown here. Identical values can stand only once. Hit rate of the full screen: of about 420,000 compounds, about 50,000 (12%) were called active. The shares of active, inactive and inconclusive entries below differ from those in the screen. Calls come from the whole dose curve; as a rule, active = well fitted inhibition curve with a large enough effect; inconclusive = small, poorly fitted or top-dose-only effect; inactive = flat fitted curve, though single readings scatter. No potency is given beside an inconclusive call; the fits are too rough.

assay: qHTS for Inhibitors of human tyrosyl-DNA phosphodiesterase 1 (TDP1): qHTS in cells in presence of CPT; details: chicken DT40 Tdp1-/-;hTDP1 cells + 20 nM CPT, ATP luminescence, 48 h; activity change, negative = growth inhibition: at 46.2 µM (top of the series); note: nearly all actives have a fitted effect of over 55% in size
Outline: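 Chicken DT40 Tdp1-/- cells stably complemented with human TDP1 were seeded at 400 cells/well in medium containing 20 nM camptothecin, exposed to pin-transferred compounds, and grown at 37 °C for at least 48 hr. Viability was read as ATP luminescence.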
% is set by controls: 0 for no effect and ±100 for the full control effect; potency is the fitted concentration of half-maximal effect; tags give direction and shape of the fitted curve.

Structure (SMILES) | Potency | activity change, negative = growth inhibition
COc1ccccc1CNC(=O)CCCCn1c(=O)c2ccccc2n(Cc2ccccc2C)c1=O | active: 5.8 µM | 
O=C(c1cccc(S(=O)(=O)NCc2ccccc2)c1)N1CCN(Cc2ccccc2)CC1 | inconclusive [inhibitor, partial curve] | 
COc1ccc(/C=N/NC(=O)c2cccnc2)cc1CN1CCc2ccccc2C1 | inconclusive [inhibitor, single point] | 
COc1ccc(C2=NS(=O)(=O)N(C)C(C(=O)Nc3ccc(OC(F)(F)F)cc3)=C2)cc1 | inconclusive [inhibitor, single point] | 
C=CCOc1cccc(C(=O)N2CCCC(CCC(=O)NCc3ccccc3F)C2)c1 (centres undefined) | inconclusive [inhibitor, single point] | 
Cc1ccc(SCC(=O)OCC(=O)NCc2cccs2)cc1 |  | inconclusive: -30.2% [inhibitor]
CC(C)Cn1c(SCC(=O)NC2CC2)nc2ccc(Cl)cc2c1=O |  | inactive: -22.8%
c1ccc(N2CCN(Cc3nnc(-c4ccc5c(c4)OCO5)o3)CC2)cc1 | inconclusive [inhibitor, single point] | 
CC(=O)Nc1ccc(NC(=O)c2nccnc2C(=O)O)cn1 |  | inactive: -0.214%
CCOC(=O)c1cc2c(=O)n3ccccc3nc2n(CCOC)c1=NC(=O)c1cc2ccccc2o1 |  | inactive: -18.2%
CC1=NNC(=O)C(CC(=O)Nc2ccc(Cl)c(Cl)c2)C1 (centres undefined) |  | inactive: 1.29%
CC(=O)c1c(C)n(C)c2ccc(OC(=O)c3ccc([N+](=O)[O-])cc3)cc12 |  | inactive: -21.3%
O=C(N/N=C/c1cc([N+](=O)[O-])cc(Br)c1O)C12CC3CCC(CC(C3)C1)C2 | inconclusive [inhibitor, single point] | 
COc1ccc(-c2cn(Cc3ccc(C(=O)c4ccccc4)cc3)nn2)cc1 | active: 3.16 µM and active: 2.06 µM | 
Cc1nn(-c2ccc(N3CCCC3)nn2)c(C)c1CCC(=O)NCc1ccccc1 |  | inactive: -20%
COc1ccc2c(c1)c(CC(=O)Nc1cc(C)ccc1C)c(C)n2C(=O)c1ccc(Cl)cc1 | inconclusive [inhibitor, partial curve] | 
Cc1ccc(-n2nnnc2SCC(=O)Nc2cccc(NC(=O)c3ccco3)c2)cc1C | inconclusive [inhibitor, single point] | 
CCCCN(c1ccccc1)c1ncnc(N)c1[N+](=O)[O-] | inconclusive [inhibitor, partial curve] | 
O=C(Nc1ccc(F)c(F)c1)C1CCCN(S(=O)(=O)c2cnc[nH]2)C1 (centres undefined) | inconclusive [inhibitor, single point] | 
Cc1ccc(/C=C/C(=O)c2c(C)cc(C)[nH]c2=O)cc1 | active: 8.91 µM | 
CCCOC(=O)c1ccc(Oc2c(-c3ccc(OCC)cc3O)n[nH]c2C)cc1 | active: 16.4 µM | 
Cc1cccc(NC(=O)c2cccc(C(F)(F)F)c2)c1 |  | inactive: -9.45%

Structure (SMILES) | Potency | activity change, negative = growth inhibition
CCC(=O)Nc1cccc(NC(=O)c2cc3ccccc3o2)c1 | inconclusive [inhibitor, single point] | 
O=C(O)c1cccc(-c2csc(C(O)c3ccc(F)cc3)n2)c1 (centres undefined) |  | inactive: 5.93%
CN(C)c1ccc(C(C[N+](=O)[O-])c2c(N)n(C)c(=O)n(C)c2=O)c(F)c1C#N (centres undefined) | active: 2.31 µM | 
COc1cccc(NC(=O)C(NC2CCCC2)c2ccccc2)c1 (centres undefined) | inconclusive [inhibitor, single point] | 
COC(=O)Cn1c(=O)c2c(nc3n2CC(C)CN3CCc2ccccc2)n(C)c1=O (centres undefined) | inconclusive [inhibitor, single point] | 
COc1cc(OC)c(/C=N/NC(N)=S)cc1Br | inconclusive [inhibitor, single point] | 
CC1(C(=O)NS(=O)(=O)c2ccc(C#N)cc2)CCN1C(=O)c1ccccc1CCc1ccccc1 (centres undefined) | inconclusive [inhibitor, single point] | 
CC(C)c1ccc(NC(=O)Cn2ncc3ccccc32)cc1 | inconclusive [inhibitor, single point] | 
CC(NC(=O)CCCN1C(=O)CCn2nc(-c3cn(C)c4ccccc34)cc21)c1ccccc1 (centres undefined) | inconclusive [inhibitor, single point] | 
CCOC(=O)c1cc2sccc2n1CC(=O)Nc1ccc2c(c1)OCCO2 | inconclusive [inhibitor, single point] | 
COc1cccc(-c2ccc3c(N)c(C(=O)c4ccc(F)cc4)sc3n2)c1 | inconclusive [inhibitor, single point] | 
CCCCNC(=S)N(CCO)Cc1cc2cc3c(cc2[nH]c1=O)OCCO3 | inconclusive [inhibitor, single point] | 
Oc1ccccc1-c1cc(C(F)(F)C(F)F)[nH]n1 | inconclusive [inhibitor, partial curve, poor fit] | 
CCC(C)NC(=O)c1ccc2c(c1)N(Cc1ccccc1)C(=O)CS2 (centres undefined) | inconclusive [inhibitor, single point] | 
O=C1c2ccccc2C(=O)N1CC(O)COc1ccccc1Cl (centres undefined) |  | inactive: 1.71%
COc1ccc(CNc2ncnc3c2cnn3-c2ccc(Cl)cc2)cc1 |  | inactive: -17.1%
Cc1ccc(NC(=O)C(=O)NCC2CCCN2S(=O)(=O)c2cccs2)cc1 (centres undefined) | inconclusive [inhibitor, single point] | 
O=C(NNC(=O)c1ccc2ccccc2c1)c1cccc(Cl)c1 |  | inactive: -18.8%
O=C(CSc1nc2ccc(Cl)cc2[nH]1)NCCc1ccccc1 | inconclusive [inhibitor, single point] | 
CC(=O)C1=C(O)CC(C)(C)CC1=NCc1nc2ccccc2[nH]1 | inconclusive [inhibitor, partial curve, poor fit] | 
C=CCN1C(=O)[C@@H]2Cc3c([nH]c4ccccc34)C(c3ccc(O)cc3)N2C1=S (some centres undefined) | inconclusive [inhibitor, single point] | 
NC(=O)c1ccc(-c2nc(-c3ccc4c(c3)OCO4)c(-c3ccccn3)[nH]2)cc1 | active: 21.1 µM | 
